# The campaign covered roughly 310,000 compounds. About 14,000 (4.5%) showed an effect of 50% or more. The effect is printed as a negative number. Some of the results follow.
# Biological target: human ether-à-go-go-related gene (hERG) potassium channel (human, UniProt Q12809)
# Assay: primary screen, population patch clamp on CHO cells stably expressing hERG
# 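Also: peak tail current of the secondary pulse compared with the same well before compound.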
# Sequence of human ether-à-go-go-related gene (hERG) potassium channel (Q12809 whole entry, looked up): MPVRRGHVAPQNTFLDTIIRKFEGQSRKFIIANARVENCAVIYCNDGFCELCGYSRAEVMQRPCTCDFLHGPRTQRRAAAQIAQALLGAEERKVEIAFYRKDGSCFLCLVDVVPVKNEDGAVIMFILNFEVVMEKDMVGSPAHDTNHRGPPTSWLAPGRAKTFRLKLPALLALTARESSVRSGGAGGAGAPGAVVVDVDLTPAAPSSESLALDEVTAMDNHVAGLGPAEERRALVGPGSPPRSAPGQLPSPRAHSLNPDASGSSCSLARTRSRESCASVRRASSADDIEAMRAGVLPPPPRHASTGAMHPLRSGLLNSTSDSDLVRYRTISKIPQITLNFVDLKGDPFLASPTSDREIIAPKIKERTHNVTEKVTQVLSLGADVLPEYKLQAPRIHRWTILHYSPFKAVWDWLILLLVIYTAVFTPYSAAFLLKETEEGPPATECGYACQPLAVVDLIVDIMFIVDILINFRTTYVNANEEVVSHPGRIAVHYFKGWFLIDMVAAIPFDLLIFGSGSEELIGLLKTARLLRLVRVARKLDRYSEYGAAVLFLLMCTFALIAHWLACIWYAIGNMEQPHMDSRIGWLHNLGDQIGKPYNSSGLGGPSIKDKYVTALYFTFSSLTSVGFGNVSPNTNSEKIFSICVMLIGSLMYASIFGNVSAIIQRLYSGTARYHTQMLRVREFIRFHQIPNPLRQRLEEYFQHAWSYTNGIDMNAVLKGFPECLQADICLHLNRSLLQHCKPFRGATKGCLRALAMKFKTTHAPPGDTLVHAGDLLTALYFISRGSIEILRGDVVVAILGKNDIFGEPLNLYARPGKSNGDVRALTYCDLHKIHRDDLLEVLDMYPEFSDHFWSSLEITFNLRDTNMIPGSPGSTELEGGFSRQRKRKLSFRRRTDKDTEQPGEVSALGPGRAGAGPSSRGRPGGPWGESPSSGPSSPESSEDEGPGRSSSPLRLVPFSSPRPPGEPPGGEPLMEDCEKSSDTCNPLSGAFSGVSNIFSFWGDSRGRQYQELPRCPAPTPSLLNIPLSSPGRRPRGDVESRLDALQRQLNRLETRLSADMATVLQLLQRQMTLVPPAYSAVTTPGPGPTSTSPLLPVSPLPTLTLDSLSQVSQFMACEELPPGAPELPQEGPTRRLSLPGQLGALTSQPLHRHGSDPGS
row,SMILES,"hERG current change (%, negative = inhibition) at 10uM [%]"
1,C#CCn1c(S(=O)(=O)Cc2ccc(C)cc2)nc(-c2ccccc2)c1-c1ccccc1,21.7
2,COc1ccc(C(=O)Cn2cnc3ccccc3c2=O)cc1,-1.4
3,Cc1cccc(NC(=O)CSc2nnc(Cc3ccccc3)o2)c1,21
4,CC(=O)Nc1ccc(S(=O)(=O)Nc2ccccn2)cc1,1.04
5,CCCN1CCN(CCCNC(=O)Cn2nc(C)n3c(cc4cc(OC)ccc43)c2=O)CC1,-1.19
6,CC(=O)Cc1nsc(NC(=O)c2ccc(-c3ccccc3Cl)o2)n1,-9.77
7,CC1(C)CC(n2[nH]c(=O)c3c2NC(=O)CSC3c2ccc(F)cc2)CCO1 (stereo not shown),-1.95
8,COc1ccc(-c2nnc(S/C(=C/c3ccc(Cl)cc3)C(=O)O)o2)cc1,27.4
9,Cc1ccc(C(=O)Nc2ccc3c(c2)ncn3C)cc1,0.434
10,O=C(CN1CCN(S(=O)(=O)c2ccc(F)cc2)CC1)Nc1cccc(C(F)(F)F)c1,-55.5
11,COc1ccc(N/C=C/C(=O)C(F)(F)F)cc1,-1.25
12,COc1ccc(CCNC(=O)Cn2nc(C(=O)O)c3ccccc3c2=O)cc1OC,20.3
13,CCOc1ccc(-n2c(SCC(=O)Nc3ccc(OC)cc3OC)nc3c(c2=O)SCC3)cc1,-8.96
14,CCCCC1CC(C)(C(=O)CSc2nc3ccccc3s2)OC1=O (stereo not shown),-0.178
15,O=C1C2C(c3ccccc3)=NN(c3ccccc3)C2C(=O)N1c1ccccc1 (stereo not shown),7.38
16,C=CCOC(=O)C1=C(C)N=C2SCCC(=O)N2C1/C=C/c1ccccc1 (stereo not shown),3.78
17,O=C(c1cc(-c2ccc(Cl)cc2)n(-c2ccc(Cl)cc2)n1)N1CCOCC1,-80.8
18,CC(C)[C@H](NC(=O)N1CCC(Cc2ccccc2)CC1)C(=O)O,6.12
19,CCN1CC(CN(C)Cc2nc(-c3ccc(Cl)cc3)no2)CC1=O (stereo not shown),-59.1
20,CCOC(=O)c1c(N)n(Cc2ccccc2)c2nc3ccccc3nc12,-29.6
21,COc1ccc(N/C=C2/CCCCC2=O)cc1,-7.02
22,CCN(CC)CCCNc1nc(N)c([N+](=O)[O-])c(NCCO)n1,8.83

row,SMILES,"hERG current change (%, negative = inhibition) at 10uM [%]"
1,Cc1ccccc1CN1CCN(CC(=O)NC(C)c2ccccc2)CC1 (stereo not shown),-14.5
2,CCC(=O)OCC(=O)Nc1cc([N+](=O)[O-])ccc1Cl,30.6
3,CCC(CO)Nc1nc2ccc(Cl)cc2c2ccccc12 (stereo not shown),16.3
4,CCN(C(=O)Cn1c(=O)n(Cc2ccccc2)c(=O)c2ccccc21)c1cccc(C)c1,-7.37
5,Cc1ccc(/C=C/C(=O)OCC(=O)NC(C)c2ccccc2)o1 (stereo not shown),-4.46
6,O=C(NC1(C(F)(F)F)NC(=O)N(CC2CCCCC2)C1=O)c1ccco1 (stereo not shown),2.29
7,COc1ccc(OCC(=O)N2CCN(C3CCC(c4ccccc4)CC3)CC2)cc1 (stereo not shown),-54.4
8,CSc1nsc(N/N=C/c2ccccc2)c1C#N,15.2
9,Cc1cccc(C)c1NC(=S)N/N=C/c1ccccc1C(=O)O,9.17
10,CC(C)(C)c1ccc(C(=O)Nc2ccc([N+](=O)[O-])cn2)cc1,20.5
11,O=C(NC1CCCCC1)C(=S)NC1CCCCC1,19.4
12,Cc1csc2ncc(C(=O)Nc3ccccc3Cl)c(=O)n12,7.18
13,Cc1ccc(S(=O)(=O)n2nccc2-c2c(-c3ccccc3)noc2C)cc1,9.91
14,CCOC(=O)c1c(CN2CCOCC2)n(-c2ccccc2)c2cc(Br)c(O)cc12.Cl,-7.35
15,Cc1sc(-c2ccccn2)nc1OC(=O)c1ccc(Cl)cc1,9.44
16,CN(C)C(CNC(=O)CNC(=O)c1ccc(Br)cc1)c1ccccc1 (stereo not shown),-3.48
17,COCC(=O)Nc1nnc(COc2ccccc2)s1,25.9
18,Cc1ccc(S(=O)(=O)NCc2ccccc2)cc1,15.3
19,CC(=O)NC(CSC(CC(=O)c1ccco1)c1ccc(C)cc1)C(=O)O (stereo not shown),42.5
20,CCOC(=O)C(C(=O)c1ccccc1)C1CC(C)NC(=S)N1 (stereo not shown),3.27
21,O=C(Nc1nc(-c2ccccc2)c(-c2ccccc2)s1)c1ccc(S(=O)(=O)N(CCCl)CCCl)cc1,3.66
22,CCN1C(=O)/C(=C/C=C2/SCCN2C)SC1=S,4.78

row,SMILES,"hERG current change (%, negative = inhibition) at 10uM [%]"
1,O=C(Cn1nc(C(F)F)cc1C(F)F)NNC(=S)Nc1ccc([N+](=O)[O-])cc1,18.2
2,COc1ccc(CCN2C(=O)CC(NCc3ccc4c(c3)OCO4)C2=O)cc1OC (stereo not shown),-3.2
3,Cc1cc(C)c(NC(=O)CNC(=O)COC(=O)C2=COCCO2)c(C)c1,0.753
4,COc1ccc(CNS(=O)(=O)c2ccc(-n3cccn3)cc2)cc1,-8.73
5,COC(=O)c1ccc(C2C(C(=O)c3ccc(C)o3)=C(O)C(=O)N2c2cc(C)on2)cc1 (stereo not shown),13
6,Cc1ccc(C)c(NC2=NCCCS2)c1,1.48
7,O=C(O)C1=C[C@@H](c2coc3ccccc3c2=O)C[C@@H](OCc2ccc(CO)cc2)O1,2.87
8,Cc1nc(C2CCCCC2)c(-c2ccccc2)c(N2CCOC2=O)c1C,-6.45
9,O=C(Nc1ccc2c(c1)OCO2)C1CCN(C(=O)c2ccc(Cl)cc2)CC1,-73.5
10,COc1cc2c(cc1OC)C(c1ccc(-c3cc(Cl)ccc3Cl)o1)=NCC2,-3.48
11,O=C(NC1CCCCC1)C(c1ccccc1)N1CCc2ccccc21 (stereo not shown),-24.1
12,COc1cccc(CNC(=O)C(Cc2ccccc2)n2cccc2)c1 (stereo not shown),-7.59
13,O=C(CCN1C(=O)/C(=C/c2ccccc2F)SC1=S)Nc1cccnc1,8.07
14,COc1cc(C(=S)N(C)C)ccc1O,-3.35
15,O=C(Nc1ccc(SC(F)F)cc1)c1cc(-c2ccncc2)nc2ccccc12,-11
16,Cc1ccc(S(=O)(=O)N[C@H](C(=O)NCC2CCC(C(=O)O)CC2)C(C)C)cc1 (stereo partly shown),-3.38
17,O=C1CC(c2ccco2)CC(O)=C1C=Nc1cc(Cl)ccc1Cl (stereo not shown),4.03
18,CCN(C(=O)COC(=O)c1nc(Cl)ccc1Cl)C1CCS(=O)(=O)C1 (stereo not shown),-2.3
19,CC(C)Oc1ccc(C2CNC(=O)C2)cc1 (stereo not shown),15.2
20,Nc1nc(SCC(=O)Nc2ccc(Cl)cc2)[nH]c(=O)c1-c1ccccc1,19.9
21,O=C(Nc1ccc2nc(-c3cccs3)[nH]c2c1)c1cccs1,-10.7
22,COc1ccc(NC(=S)Nc2ccccc2)cc1,17.6

row,SMILES,"hERG current change (%, negative = inhibition) at 10uM [%]"
1,CC(=O)Nc1ccc(-c2ccnc(-c3ccc(NC(C)=O)cc3)n2)cc1,31.8
2,Cc1cccc(C)c1NC(=O)COC(=O)c1ccccc1[N+](=O)[O-],19.7
3,CC(C)Nc1nc(Oc2ccc(=O)n(-c3ccccc3)n2)nc(N(C)C)n1,4.33
4,COc1cc(NC(=O)CN2C(=O)NC(C)(c3ccc(OC(F)F)cc3)C2=O)cc(OC)c1OC (stereo not shown),-12.9
5,Br.COc1ccc(-c2csc(CCN3N=C(C)CC3=O)n2)cc1,12.7
6,CCN(CC)c1ccc(NC(=O)c2ccc(=O)[nH]c2)cc1S(=O)(=O)Nc1ccccc1OC,7.16
7,CC(C)CSc1nc(N2CCOCC2)c2c(c1C#N)CC(C)(C)SC2,-2.91
8,CC(C)N(C(=O)Cn1c(SCC(=O)N2CCN(c3ccccc3)CC2)nc2ccccc21)C(C)C,16.2
9,COc1ccc(-c2ccc(CCC(=O)O)n2CC(C)C)cc1,1.24
10,CCc1ccc(OCC(=O)N2CCN(CC(=O)Nc3ccccc3Cl)CC2)cc1,-80.7
11,C/C(=N\NC(=O)CC(C)C)c1ccc(Cl)c(Cl)c1,30.7
12,O=C(COC(=O)c1ccccc1Cl)Nc1cccnc1Cl,1.05
13,Cc1ccccc1Nc1cc(C(=O)NCc2ccco2)c2ccccc2n1,20.3
14,CC(NC(=O)/C(C#N)=C1\N=C(NC(=O)c2ccco2)c2ccccc21)c1ccccc1 (stereo not shown),-9.42
15,COc1ccccc1N1CCN(S(=O)(=O)c2ccc(Cl)s2)CC1,0.669
16,Cc1n[nH]c(=O)c2c(NC(=O)CSc3nnnn3-c3ccc(O)cc3)oc(C)c12,26.3
17,CCCCNC(=O)CC1N=C2c3ccccc3N=C(SCC(=O)Nc3ccccc3C)N2C1=O (stereo not shown),-0.929
18,O=C(c1sc2ccccc2c1Cl)N(Cc1cccs1)C1CCS(=O)(=O)C1 (stereo not shown),-10.6
19,CC(=O)CCCC(NS(=O)(=O)CCC(Cl)(Cl)Cl)c1ccccc1 (stereo not shown),-20.4
20,Cc1ccc(NC(=O)CCC(=O)NNC(=O)c2ccco2)cc1C,-2.2
21,COc1ccc(-c2nnc(SCC(=O)N3CCc4ccccc4C3)o2)cc1,-33.6
22,COc1cc(OC)cc(C(=O)NCCC(=O)NCCc2ccc(OC)c(OC)c2)c1,2.89

# — paper PMC4336329 (PLoS ONE, 2015)
